# Laboratory results published in the supplement of paper PMC10986608.
# This is one part of the list. Repeats are few or missing, and single values can be far off.
# System: Candida albicans DPL-15
# Experiment: growth (OD600) after compound treatment (apparently relative to screen median) (relative growth (fraction; screen median 1.02)); DPL-15 is a caspofungin-resistant clinical isolate; higher = more fungal growth (less antifungal activity)
# Settings: 25 µM; RPMI 1640; 48 h; 30 °C
row,SMILES,growth
1,COC(=O)c1cccc2cnnn12,1.28
2,CC(C)C(=O)Cc1cc(O)cc(O)c1C(=O)N1Cc2ccccc2C1,0.985
3,COc1ccc(N2C(=O)c3[nH]nc(CC(C)C)c3C2c2ccccc2Cl)cn1 (stereo unspecified),0.941
4,COC(=O)C1=C(C)N(Cc2cccc(C(F)(F)F)c2)C(NCC2CCCCC2)=NC1c1ccc(Cl)cc1 (stereo unspecified),0.883
5,CS(=O)(=O)Oc1c(CC23COCCC2=Nc2ccccc23)occc1=O (stereo unspecified),1.25
6,O=C1NC(c2ccccc2)C2=C1NCCN=C2c1ccccc1 (stereo unspecified),1.07
7,C[C@@H]1/C=C\CC(=O)OCCCCCC(=O)N[C@@H]1c1cccc(Br)c1,1.11
8,COC(=O)C/C=C/[C@H](C)[C@@H](NC(=O)[C@@H](Cc1ccccc1)NC(=O)OC(C)(C)C)c1cccc(Br)c1,1.09
9,CC(C)Cc1n[nH]c2c1C(c1cccc(C(F)(F)F)c1)N(c1ccc(C(C)(C)C)cc1)C2=O (stereo unspecified),0.936
10,Nc1ccccc1C(=O)/C=C/c1ccc2c(c1)OCO2,0.674
11,COC(=O)C1=C(C)N(Cc2ccccc2)C(=O)N[C@H]1c1ccco1,1.12
12,COc1cc([C@H]2[C@H](C(=O)NCc3ccccc3)[C@@H](C(=O)NCc3ccccc3)[C@@H]2c2cc(OC)c(OC)c(OC)c2)cc(OC)c1OC,1.07
13,COc1cc(O)c2c(c1)O[C@H](c1ccccc1)CC2=O,0.981
14,COC[C@@H](O)[C@H]1OCc2cccc(OC)c2[C@@H]1/C=C/c1ccccc1,0.917
15,COC(=O)N[C@@H](c1ccccc1)C(C(=O)OC)C(=O)OC,0.942
16,C=CCc1c(O)cc(O)c2c1O[C@H](c1ccc(O)cc1)CC2=O,1.03
17,CCN(CC)CCCC(C)Nc1c2cccc(OC)c2nc2c(C(=O)Nc3ccc(CCN4CCc5cc(OC)c(OC)cc5C4)cc3)cccc12 (stereo unspecified),0.985
18,Fc1cc(F)c2c3c([nH]c2c1)CCCC3,1.15
19,CO[C@@H]1CCN(C(=O)c2c(O)cc(O)cc2Nc2c(C)nn(C)c2C)C1,1.04
20,Cc1c([C@]23CCN(C(=O)c4ccc(C(F)(F)F)cc4)[C@H]2Nc2ccccc23)[nH]c2ccccc12,1.11
21,C[C@H]1Cc2c(COc3ccccc3)nc3c(c2CO1)CN(C(=O)c1cc(I)ccc1F)CC3,1.04
22,O=C1NC[C@H](c2ccccc2)N1,1.05
23,COCCN[C@@]12c3nc(-c4ccccc4)[nH]c(=O)c3[C@@H](c3ccccc3)[C@]1(c1ccc(OC)cc1)Oc1cc(OC)cc(OC)c12,1.18
24,CC#CCN1C(=O)N(C(C)=O)C(c2ccccc2)C(C(C)=O)=C1C (stereo unspecified),1.2
25,C[C@H]1O[C@H]2C3=C(CCOC3=O)[C@@H]1[C@@H]1C(=O)N(c3ccc(Br)cc3)C(=O)[C@@H]12,1.02
26,Cn1nc(-c2ccc(OC(F)(F)F)cc2)cc1N,1.15

row,SMILES,growth
1,COCCNC1=NC(c2cccc(Cl)c2)C(C(=O)OC)=C(C)N1Cc1ccc(C(F)(F)F)cc1 (stereo unspecified),1.07
2,Cc1cc(O)c2c(c1)O[C@]1(C(=O)O)C(=C(O)CC[C@H]1O)C2=O,1.14
3,Nc1cc(-c2ccccc2)nn1C1CCCCC1,0.952
4,COC(=O)C/C=C/[C@H](C)[C@@H](NC(=O)[C@H](Cc1ccccc1)NC(=O)OCC1c2ccccc2-c2ccccc21)c1ccccc1,1.21
5,CC(C)C1=NCCN(C)C2=C1C(c1ccc(Br)cc1)NC2=O (stereo unspecified),0.987
6,COc1ccc2c(c1)[C@@]1(OCCC=C[C@H]1C)C(=O)N2Cc1ccc(F)cc1,0.987
7,O=C1NC(c2ccc(F)cc2)c2c1nn(-c1ccc(OC(F)(F)F)cc1)c2-c1ccccc1 (stereo unspecified),0.804
8,COC(=O)c1cc2c(c3c4cc(C)ccc4n(S(=O)(=O)c4ccc(OC)cc4)c13)C(=O)N(Cc1ccc(C)cc1)C2,0.984
9,COC(=O)C1=C(C)Oc2ccccc2[C@@H]1c1ccccc1,0.899
10,COc1cc([C@@H]2[C@@H](C(=O)NC3CCCCC3)[C@H](C(=O)NC3CCCCC3)[C@H]2c2cc(OC)c(OC)c(OC)c2)cc(OC)c1OC,0.971
11,COc1ccc(-c2c(O)c(=O)c3ccccc3n2C)cc1,0.682
12,COC(=O)C1=C(CCl)N(C(C)=O)C(=O)N(C(C)=O)C1c1cccc(C#N)c1 (stereo unspecified),1.46
13,Cc1ccc(C2NC(=O)C3=C2C(CC(C)C)=NCCN3)cc1 (stereo unspecified),1.06
14,COC(=O)C1=C(C)N(Cc2ccc(C(F)(F)F)cc2)C(NCCc2cccs2)=NC1c1ccccc1 (stereo unspecified),0.841
15,O=C(OC[C@@]1(O)C(=O)[C@H]2C=C[C@@H]1[C@H]1C2C=CC(=O)[C@]1(O)COC(=O)c1ccccc1)c1ccccc1 (stereo partly specified),0.803
16,C=C(C)C[C@H](O)COc1cc2c(cc1C1(c3cc4c(cc3OC[C@@H](O)CC(=C)C)OCO4)C(=O)Nc3c(F)cccc31)OCO2,0.919
17,O=C(c1c(O)cc(O)cc1Nc1ccnn1Cc1ccc(C(F)(F)F)cc1)N1Cc2cn[nH]c2C1,0.96
18,Cc1cc(CCCc2ccccc2)nc(CCCc2ccccc2)c1,1.18
19,CC1=NCC(C)(C)NC2=C1C(c1ccc(Br)cc1)N(c1ccccc1)C2=O (stereo unspecified),0.901
20,COC(=O)c1ccc(Oc2cc(Br)cc(OC)c2)o1,0.96
21,COC(=O)C1=C(C)NC(=S)NC1c1ccc(Br)cc1 (stereo unspecified),1.01
22,CN1CCN=C(c2ccccc2)C2=C1C(=O)N(Cc1ccccc1)C2c1ccc(F)cc1 (stereo unspecified),1.04
23,CCc1ccccc1-n1nc2c(c1-c1ccccc1)C(c1ccc(C)cc1)NC2=O (stereo unspecified),0.909
24,COC(=O)C1=C(C)N(Cc2ccc(F)cc2)C(=S)NC1c1ccccc1Cl (stereo unspecified),0.983
25,COc1cc(O)c(C(=O)[C@H]2CC=C(CCC=C(C)C)C[C@@H]2c2ccsc2)c(O)c1,1.08
